# PubChem BioAssay AID504706 (National Center for Advancing Translational Sciences (NCATS), 2011)
# The campaign covered roughly 320,000 compounds. About 200 (0.062%) were called active. Inconclusive means that the source gave no clear call. Such entries were picked first, then a sample of the others. Calls follow the shape of the dose curve; as a rule, active = well fitted activation curve with a large enough effect; inconclusive = small, poorly fitted or top-dose-only effect; inactive = no such curve, though single readings can be large or run the other way. No potency is given beside an inconclusive call; the fits are too rough.
# Assay: qHTS assay for re-activators of p53 using a Luc reporter; also: nearly all actives have a fitted effect of over 45% in size; as to activity change, positive = activation: % of control where 0% means no effect
# Conditions: H1299 p53-A138V BP100-luciferase reporter, luminescence, 24 h; series mostly up to 92.2 µM; activity change, positive = activation: at the top concentration
# How it was run: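 H1299 (p53-null), stable ts p53-A138V + BP100-Luc; 1000 cells/well, Opti-MEM/10% FBS; cpd 4 pt, 1:5; 24 h, 37 deg C, 5% CO2; detection reagent 10 min RT; luminescence.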
# Potency is read from the fitted curve at half-maximal effect; tags tell the direction and shape of the fitted curve.
Structure (SMILES),Potency,"activity change, positive = activation"
COc1ccc(CCNC2CCC(c3ccccc3)CC2)cc1 (stereo unspecified),"inconclusive [activator, partial curve, poor fit]",–
CCOC(=O)c1csc(NC(=O)C2CCCCC2)n1,"inconclusive [activator, full curve, poor fit]",–
CCCOc1ccc2cc(C(=O)NCc3ccccc3)c(=O)oc2c1,"inconclusive [activator, single point]",–
COc1cccc(CC(=O)OCC(=O)NC2(C#N)CCCC2)c1,"inconclusive [activator, single point]",–
CCSc1nc2ccccc2n1CCOc1ccccc1,–,inactive: 22.6%
COc1ccc2ccccc2c1/C=N/Nc1cccc(C(=O)O)c1,"inconclusive [activator, partial curve, poor fit]",–
O=C(CNC(=O)c1ccccc1Br)N/N=C/c1cc(Br)ccc1O,"inconclusive [activator, single point]",–
CN(C)CCCn1c(SCC(=O)Nc2nccs2)nnc1-c1ccncc1,"inconclusive [activator, partial curve, poor fit]",–
O=C(Nc1cccc(-c2nc3ncccc3o2)c1)c1sc2cc(Cl)ccc2c1Cl,"inconclusive [activator, partial curve, poor fit]",–
C=CCn1c(C)cc(C(=O)COC(=O)c2ccc3c(c2)NC(=O)CS3)c1C,"inconclusive [activator, partial curve, poor fit]",–
Clc1ccc(-c2ccnc(-n3cccc3)n2)s1,–,inactive: 1.08%
CCc1ccc(OCC(O)CN2CCN(CCO)CC2)cc1 (stereo unspecified),"inconclusive [activator, partial curve, poor fit]",–
CN=c1scc(-c2ccco2)n1/N=C/c1ccc(O)c(O)c1,"inconclusive [activator, partial curve, poor fit]",–
O=C(N/N=C/c1ccc2c(c1)OCO2)c1ccc(Br)o1,active: 3.16 µM,–
CCCn1c(C)cc(C(=O)COc2ncnc3sccc23)c1C,"inconclusive [activator, partial curve, poor fit]",–
COC1=C/C(=C/c2c(N)n3cc(C)sc3nc2=O)C=CC1=O,"inconclusive [activator, single point]",–
COc1ccccc1-c1n[nH]c(=S)n1N,–,inactive: -2.38%
CCCCc1nnc(NC(=O)C23CC4CC(CC(NC(C)=O)(C4)C2)C3)s1,–,inactive: 5.4%
O=C(CSc1nc2ccccc2c(=O)n1-c1ccc(Cl)cc1)N/N=C/C=C/c1ccccc1[N+](=O)[O-],–,inactive: -2.73%
Cc1cc(C)cc(NC(=O)CSc2ccc(-c3ccco3)nn2)c1,–,inactive: 7.19%
C/C(=N\N=C1\NC(=O)C(Cc2ccccc2)S1)c1ccccc1 (stereo unspecified),–,inactive: 4.12%
COc1ccccc1NC(=O)NC1(C(=O)N2CCC(C)CC2)CCCCC1,"inconclusive [activator, single point]",–
Cc1ccnc(NC(c2ccncc2)c2c(C)[nH]c3ccccc23)c1 (stereo unspecified),"inconclusive [activator, single point]",–
Nc1c(C(=O)Nc2cccc(F)c2)nnn1-c1cccc(C(F)(F)F)c1,–,inactive: 5.37%

Structure (SMILES),Potency,"activity change, positive = activation"
O=C(Nc1cccc(F)c1)N1CC=C(c2ccc(Cl)cc2)CC1,"inconclusive [activator, single point]",–
O=C(/C=C/Sc1ccccc1)c1ccc(Cl)cc1,"inconclusive [activator, partial curve, poor fit]",–
C#CCN1C(=O)S/C(=C/C=C/c2ccc(N(C)C)cc2)C1=O,"inconclusive [activator, full curve, poor fit]",–
Cc1ccc(C)c(N2CCN(C(=O)C3CCN(c4nc(C)cc(C)n4)CC3)CC2)c1,–,inactive: 1.88%
COc1ccccc1-n1c(N)c(C(=O)NCC2CCCO2)c2nc3ccccc3nc21 (stereo unspecified),–,inactive: -2.97%
COCc1cc(CN2CCN(C)CC2)c(O)c2ncccc12,"inconclusive [activator, single point]",–
O=C(NCCCNC1CCCCC1)c1ccc(/C=N/O)nc1,"inconclusive [activator, partial curve, poor fit]",–
COc1cc(/C=C/C(=O)OCC(=O)Nc2sc3c(c2C#N)CCC(C)C3)ccc1OCC#N (stereo unspecified),–,inactive: 12.8%
COc1cc(/C=N/N=C2/NC(=O)C(CC(=O)O)S2)ccc1OCc1ccc(Cl)cc1 (stereo unspecified),"inconclusive [activator, full curve, poor fit]",–
O=C(N/N=C/C(Cl)=C/c1ccccc1)c1ccc2c(c1)OCO2,"inconclusive [activator, partial curve, poor fit]",–
Cc1cc(C(=O)COC(=O)C2=COCCO2)c(C)n1-c1cccc(F)c1,"inconclusive [activator, full curve, poor fit]",–
COC(=O)CSc1nc(C(C)C)nc2ccccc12,"inconclusive [activator, single point]",–
O=C(Nc1ccccc1)C1=C[C@H](c2ccc3c(c2)OCO3)C[C@H](OCCCCO)O1,–,inactive: 7.62%
Cc1ccc2nc(NNC(=O)c3ccc(S(=O)(=O)N4CCc5ccccc5C4)cc3)sc2c1,"inconclusive [activator, full curve, poor fit]",–
CCOC(=O)c1sc(NC(=O)C(C)(C)C)cc1C,"inconclusive [activator, partial curve, poor fit]",–
CCc1sc(C(=O)N2CCN(CC(=O)Nc3cccc(F)c3)CC2)cc1C,"inconclusive [activator, full curve, poor fit]",–
O=C(c1cc(-c2ccc(F)cc2)on1)N1CCCC1,"inconclusive [activator, full curve, poor fit]",–
O/N=C\c1ccc(-c2ccccc2)o1,"inconclusive [activator, partial curve, poor fit]",–
N=C1/C(=C\c2ccc(SCc3ccco3)o2)C(=O)N=C2SC=NN12,–,inactive: 3.66%
O=C(Oc1ccc(Cl)c2cccnc12)C12CC3CC(CC(C3)C1)C2,–,inactive: 0.369%
Cc1csc(NC(=O)c2ccc(N3CCCC3=O)cc2)n1,–,inactive: -8%
O=C1CCCN1CCCN=c1c([N+](=O)[O-])nn(-c2ccc(Cl)cc2)n1O,–,inactive: 27.3%
COc1ccc2c(c1OC)C(=O)N1c3ccccc3SC21 (stereo unspecified),"inconclusive [activator, partial curve, poor fit]",–
CC(=O)c1ccc(OCc2cc(C(=O)N3CC[C@@H]4CCCC[C@H]4C3)no2)cc1,"inconclusive [activator, full curve, poor fit]",–

Structure (SMILES),Potency,"activity change, positive = activation"
CN1C(=O)C2(Oc3ccccc3C3CC(c4ccccc4)=NN32)c2ccccc21 (stereo unspecified),"inconclusive [activator, partial curve, poor fit]",–
O=[N+]([O-])c1ccccc1/C=C/C=N/N1CCCCC1,"inconclusive [activator, partial curve, poor fit]",–
COc1ccccc1C(=O)Nc1ccc2c(c1)OCO2,"inconclusive [activator, partial curve, poor fit]",–
COC(=O)c1cccc(C(=O)Nc2cnc3ccccc3c2)n1,"inconclusive [activator, partial curve, poor fit]",–
CCN(CC)C(=S)SCC(=O)c1ccc(Br)cc1,"inconclusive [activator, partial curve, poor fit]",–
C/C(=N\NC(=O)c1cc(O)cc(O)c1)c1ccc(NC(=O)Cc2ccccc2)cc1,"inconclusive [activator, partial curve, poor fit]",–
CN(CCCCCCN(C)Cc1ccccc1O)Cc1ccccc1O,"inconclusive [activator, partial curve, poor fit]",–
O=C1c2ccccc2S(=O)(=O)N1CC1CC(c2ccccc2Cl)=NO1 (stereo unspecified),"inconclusive [activator, partial curve, poor fit]",–
O=C(Nc1ccc2c(c1)CCC2)c1ccccc1Br,"inconclusive [activator, partial curve]",–
O=C(CSc1nnc(NC2CC2)s1)c1ccc[nH]1,"inconclusive [activator, partial curve, poor fit]",–
Nc1n[nH]c(N)c1N=Nc1ccc2c(c1)OCO2,–,inactive: 7.04%
O=C(CSc1ncn[nH]1)NCc1ccccc1Cl,–,inactive: 9.05%
Cn1cnnc1SCc1nc(N)nc(Nc2ccccc2)n1,–,inactive: 16.5%
Cc1cc(C(=O)NC2CCCCC2)c(C)o1,"inconclusive [activator, partial curve, poor fit]",–
COc1ccccc1-c1nc(=S)c(C(C)=O)c(C)[nH]1,–,inactive: -1.47%
CC(C)C(=O)Nc1ccc(C(=O)NCc2cccnc2)cc1,–,inactive: -18.6%
CC(=O)Nc1ccn(-c2ccccc2)n1,"inconclusive [activator, partial curve, poor fit]",–
CCCCc1ccc(-c2ccc(Br)cc2O)nc1,–,inactive: 28.1%
O=C(Nc1cccc(C(=O)O)c1)/C(=C\c1ccco1)NC(=O)c1ccccc1Cl,–,inactive: -0.59%
CCCn1nnc(NC(=O)c2ccc(Cl)cc2Cl)n1,"inconclusive [activator, partial curve, poor fit]",–
CC(C)Cc1csc(NC(=O)c2ccccc2Cl)c1C(=O)O,–,inactive: 27.1%
NS(=O)(=O)c1cccc(NC(=O)CN2CCc3ccccc32)c1,–,inactive: 20.8%
CCC(C)(C)NC(=O)C(c1cccs1)N(CC1CCCO1)C(=O)Cn1nnc2ccccc21 (stereo unspecified),"inconclusive [activator, single point]",–
